From patent US20240139198A1, “METHOD AND COMBINATION FOR TREATING TUMORS” (CURON BIOPHARMACEUTICAL (SHANGHAI) CO., LIMITED, priority 2021, published 2024)

Experiments:
[1] = tested on: A20 cells; test: A20 mouse B-cell lymphoma animal model, tumor growth in Balb/c mice; format: in vivo
Procedure: The animal experiment was carried out in accordance with the requirements of AAALAC, and was approved by Bikai Animal Experiment Center IACUC to conduct. 6-8 week-old Balb/c mice (16-20 grams) were purchased from Beijing Weitong Lihua Experimental Animal Technology Co., Ltd. Each mouse was subcutaneously inoculated with 500,000 A20 cells, and inoculated on the right rear side of the back of the mouse. When the volume of the tumor grew to about 60mm^3, the mice were randomly assigned to the control group and the experimental group.
Mice were euthanized whnmorbidity or weightloss>20% was observed. Tumors were measured with a caliper twice weekly until final sacrifice. When a tumor size reached approximately 2000 mm^3 or there were animal health issues (20% area of a tumor ulcerated), the animals would be euthanized an date of death recorded. Solid tumor volumes were estimated from two dimensional tumor measurements and calculated according to the following equation:
Tumor volume (mm 3)=[length(mm)×width2 (mm 2)]/2
The percent median regression for a group at a given day was then obtained by taking the median of the individual percent regression calculated for each animal of the group at this day. The day of calculation was determined on the day when ΔT/ΔC (i.e., the ratio of medians of tumor volume changes from baseline between the treated and control groups)was calculated, except when median percent regression was not representative of the activity of the group. In that case, the day was determined on the first day when the median percent regression was maximal. Regressions were defined as partial (PR) if the tumor volume decreased to 50% of the tumor volume at the start of treatment. Complete regression (CR) was considered to have been achieved when tumor volume was below 14 mm^3 or could not be recorded. • RTV: Relative Tumor Volume. RTV=Vt/V0∘ Vt: Tumor volume at the end of an experimental period (treatment group). V0: tumor volume at the beginning of the experiment • TGI: Tumor Growth Inhibition value. TGI=[1−RTV(experimental group)/RTV(control group)]*100%
A two-way ANOVA type with factors treatment an day(repeated) was performed on tumor volume changes from baseline. In case of significant treatment day interaction or treatment effects, it was followed by a contrast analysis with Bonferroni-Holm correction for multiplicity to compare all treated groups to the control group at each day from day 8 to 27. Tumor volume changes from baseline were calculated for each animal and each day by subtracting the tumor volume on the day of first treatment from the tumor volume on the specified observation day. As heterogeneity of variances was observed between groups, the compound symmetric(CS) covariance structure with group=option was chosen for the ANOVA type model (SAS Institute Inc. (2008) SAS/STAT 9.2User′s Guide by CaryNC). All statistical analyses were performed using SAS version v9.2 software. A probability less than 5% (p<0.05).
6-8 weeks old balb/c mice (18-20 g) were purchased from Beijing Weitong Lihua Experimental Animal Technology Co., Ltd., and each mouse was subcutaneously inoculated with 500,000 A20 cells on the right rear side of the mouse's back. Treatment was initiated when tumors grew to a volume of approximately 62 mm^3. CN401 was orally administered at 150 mg/kg twice a day for 3 weeks.
CN202 was administered by intraperitoneal injection, 3 times a week at a dose of 5 mg/kg for 3 weeks. The control group was treated with vehicle (0.5% MC and PBS) without active product. Tumor size and body weight were measured three times a week. This animal experiment was carried out in accordance with the requirements of AAALAC, and was approved by Bikai Animal Experiment Center IACUC to conduct this animal experiment.
Referring to the experimental method of Example 1.1, the difference is that the dosage of CN202 is replaced by 15 mg/kg from 5 mg/kg. […]

[2] = tested on: EMT-6 cells (mouse triple-negative breast cancer cells); format: in vivo; details: Example 4, CN202 15 mg/kg i.p. three times a week × 2 week + once a week × 2 week
Procedure: Tumors were measured with a caliper twice weekly until final sacrifice. […] Solid tumor volumes were estimated from two dimensional tumor measurements and calculated according to the following equation: […]

B1: CN202: PD-L1/TGFβ dual inhibitor; two polypeptides of anti-PD-L1 VH, CH2, CH3 domains and TGFβRII fragment joined by linker (SEQ ID NO: 7) (protein)
chain: EVQLVESGGGLVQPGGSLRLSCAASGHFSNLAVNWFRQAPGKERELVAGILWSGGSTFYADSVKGRFTISRGNAENMLYLQMNSLRAEDTAVYYCNTGTNWGQGTLVTVSS[in this place human IgG1 Fc]GGSGGGGSGGGGSGGGGSIPPHVQKSVNNDMIVTDNNGAVKFPQLCKFCDVRFSTCDNQKSCMSNCSITSICEKPQEVCVAVWRKNDENITLETVCHDPKLPYHDFILEDAASPKCIMKEKKKPGETFFMCSCSSDECNDNIIFSEEYNTSNPD
modifications: homodimer
CR(Number of mice with tumor regression/total amount of mice in each group) ([1]; Example 1.1, CN202 5 mg/kg i.p. tiw × 3 weeks, day 22): 1/8
TGI % ([1]; Example 1.1, CN202 5 mg/kg i.p. tiw × 3 weeks, day 22 vs vehicle control, p=0.27): 31%
CR(Number of mice with tumor regression/total amount of mice in each group) ([1]; Example 1.2, CN202 15 mg/kg i.p. tiw × 3 weeks, day 22): 2/8
TGI % ([1]; Example 1.2, CN202 15 mg/kg i.p. tiw × 3 weeks, day 22 vs vehicle control, p=0.014): 58%
CR(Number of mice with tumor regression/total amount of mice in each group) ([1]; Example 2.1, CN202 5 mg/kg i.p. tiw × 3 weeks, day 22): 1/7
TGI % ([1]; Example 2.1, CN202 5 mg/kg i.p. tiw × 3 weeks, day 22 vs vehicle control, p=0.004): 68%
CR(Number of mice with tumor regression/total amount of mice in each group) ([1]; Example 2.2, CN202 5 mg/kg i.p. tiw × 3 weeks, day 21): 1/7
TGI % ([1]; Example 2.2, CN202 5 mg/kg i.p. tiw × 3 weeks, day 21 vs vehicle control, p=0.004): 68%
TGI % ([2]; 14th day vs vehicle control, p=0.11): 42%
CR(Number of mice with tumor regression/total amount of mice in each group) ([2]; observed up to 80 days): 0/8
